Assay results reported in the supplement of paper PMC12582362.
Where a name gives a salt, the structure may show the parent alone. Hit rate of the full screen: of about 1,500 compounds, about 30 (2%) showed activity.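 Rule for the calls: active = robust z-score below -2; a few such results were not called.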 Some of the results follow.

Each molecule was assayed on optoTopBP1 Flp-In 293 T-REx (HEK293) cells (assay: light-induced TopBP1 condensate (nuclear foci) count, plate-normalised robust z-score vs non-control wells; higher = more TopBP1 condensates (negative = condensation inhibitor), active = hit call of the paper). Conditions: 10 µM; incubation time 2 h.
In the case of `CN(C)CC/C=C1\c2ccccc2CSc2ccccc21` [Dosulepin hydrochloride], the “light-induced TopBP1 condensate (z-score)” value is reported as inactive: 0.0482.
With `CC(C)(Oc1ccc(Cl)cc1)C(=O)O` [Clofibric acid] the “light-induced TopBP1 condensate (z-score)” value was inactive: -0.339.
`Cn1c(=O)c2c(ncn2CC(=O)O)n(C)c1=O` [Acefylline] was tested, and the “light-induced TopBP1 condensate (z-score)” value was inactive: 0.889.
For `O=C(O)C1CSCN1` (centres undefined) [Timonacic], the “light-induced TopBP1 condensate (z-score)” value was inactive: -0.605.
`CO[C@H]1C[C@H](O[C@H]2[C@H](C)[C@@H](O[C@@H]3O[C@H](C)C[C@H](N(C)C)[C@H]3OC(C)=O)[C@@H](C)C[C@@]3(CO3)C(=O)[C@H](C)[C@@H](OC(C)=O)[C@@H](C)[C@@H](C)OC(=O)[C@@H]2C)O[C@@H](C)[C@@H]1OC(C)=O` [Troleandomycin] was tested, and the “light-induced TopBP1 condensate (z-score)” value was inactive: 0.939.
With `Cc1cc(C(=O)NNCc2ccccc2)no1` [Isocarboxazid] the “light-induced TopBP1 condensate (z-score)” value was inactive: -0.0175.
For `COc1cc(OC)c(C(=O)CCCN2CCCC2)c(OC)c1` [Buflomedil hydrochloride], the “light-induced TopBP1 condensate (z-score)” value was inactive: -0.012.
For `N#CC(c1ccc(Cl)cc1)c1c(Cl)cc(-n2ncc(=O)[nH]c2=O)cc1Cl` (centres undefined) [Diclazuril], the “light-induced TopBP1 condensate (z-score)” value was inactive: -0.132.
With `CNC(=O)OCc1cccc(COC(=O)NC)n1` [Pyricarbate] the “light-induced TopBP1 condensate (z-score)” value was inactive: 0.0628.
With `CCN1C(=O)NC(c2ccccc2)C1=O` (centres undefined) [Ethotoin] the “light-induced TopBP1 condensate (z-score)” value was inactive: 0.403.
`CN1CCC(=C2c3ccccc3CC(=O)c3sccc32)CC1` [Ketotifen fumarate] was tested, and the “light-induced TopBP1 condensate (z-score)” value was inactive: 0.179.
In the case of `CN1CCCC(CC2c3ccccc3Sc3ccccc32)C1` (centres undefined) [Metixene hydrochloride], the “light-induced TopBP1 condensate (z-score)” value is reported as inactive: -0.0636.
`COc1ccccc1N1CCN(CC(O)COc2cccc3ccccc23)CC1` (centres undefined) [Naftopidil dihydrochloride] was tested, and the “light-induced TopBP1 condensate (z-score)” value was inactive: 0.998.
With `CC(COc1ccccc1)NN` (centres undefined) [Phenoxypropazine dihydrochloride] the “light-induced TopBP1 condensate (z-score)” value was inactive: 0.724.
`COc1ccc2c(c1)N(C[C@H](C)CN(C)C)c1ccccc1S2` [Methotrimeprazine maleat salt] was tested, and the “light-induced TopBP1 condensate (z-score)” value was inactive: -1.01.
For `CCCN(CCC)C(=O)C(CCC(=O)O)NC(=O)c1ccccc1` (centres undefined) [Proglumide], the “light-induced TopBP1 condensate (z-score)” value was inactive: 0.915.
In the case of `CC(C)(Sc1cc(C(C)(C)C)c(O)c(C(C)(C)C)c1)Sc1cc(C(C)(C)C)c(O)c(C(C)(C)C)c1` [Probucol], the “light-induced TopBP1 condensate (z-score)” value is reported as inactive: 0.588.
In the case of `CS(=O)(=O)CCNCc1ccc(-c2ccc3ncnc(Nc4ccc(OCc5cccc(F)c5)c(Cl)c4)c3c2)o1` [Lapatinib], the “light-induced TopBP1 condensate (z-score)” value is reported as inactive: 0.341.
In the case of `Nc1c(Br)cc(Br)cc1CN[C@H]1CC[C@H](O)CC1` [Ambroxol hydrochloride], the “light-induced TopBP1 condensate (z-score)” value is reported as inactive: 0.333.
With `Cn1ccnc1S` [Methimazole] the “light-induced TopBP1 condensate (z-score)” value was inactive: -0.456.
`CCC(=O)c1ccc(O)cc1` [Paroxypropione] was tested, and the “light-induced TopBP1 condensate (z-score)” value was inactive: 0.215.
In the case of `O=c1cc(-c2ccc(O)c(O)c2)oc2cc(O)cc(O)c12` [Luteolin], the “light-induced TopBP1 condensate (z-score)” value is reported as inactive: -0.31.
In the case of `CC(C)(C(=O)c1cccnc1)c1cccnc1` [Metyrapone], the “light-induced TopBP1 condensate (z-score)” value is reported as inactive: -0.113.
With `CC(C)(S)C(N)C(=O)O` (racemic) [D,L-Penicillamine] the “light-induced TopBP1 condensate (z-score)” value was inactive: 1.98.
`CC(=O)N(O)CCCCCNC(=O)CCC(=O)N(O)CCCCCNC(=O)CCC(=O)N(O)CCCCCN` [Deferoxamine mesylate] was tested, and the “light-induced TopBP1 condensate (z-score)” value was inactive: 0.967.
With `CC(C)/N=c1\cc2n(-c3ccc(Cl)cc3)c3ccccc3nc-2cc1Nc1ccc(Cl)cc1` [Clofazimine] the “light-induced TopBP1 condensate (z-score)” value was inactive: -0.176.
`O=C1Cc2cc(CCN3CCN(c4nsc5ccccc45)CC3)c(Cl)cc2N1` [Ziprasidone  Hydrochloride] was tested, and the “light-induced TopBP1 condensate (z-score)” value was inactive: -0.964.
`CCN[C@H]1C[C@H](C)S(=O)(=O)c2sc(S(N)(=O)=O)cc21` [Dorzolamide hydrochloride] was tested, and the “light-induced TopBP1 condensate (z-score)” value was inactive: -0.91.
With `CCCC(=O)N1CCCN(c2nc(N)c3cc(OC)c(OC)cc3n2)CC1` [Bunazosin hydrochloride] the “light-induced TopBP1 condensate (z-score)” value was inactive: 0.537.
In the case of `CO[C@@]1(NC(=O)CSCC#N)C(=O)N2C(C(=O)O)=C(CSc3nnnn3C)CS[C@@H]21` [Cefmetazole sodium salt], the “light-induced TopBP1 condensate (z-score)” value is reported as inactive: 0.556.
With `C[C@@H]1[C@H](O)[C@@H](C)/C=C/C=C/C=C/C=C/C=C/C=C/C=C/[C@H](O[C@@H]2O[C@H](C)[C@@H](O)[C@H](N)[C@@H]2O)C[C@@H]2O[C@](O)(C[C@@H](O)C[C@@H](O)[C@H](O)CC[C@@H](O)C[C@@H](O)CC(=O)O[C@H]1C)C[C@H](O)[C@H]2C(=O)O` [Amphotericin B] the “light-induced TopBP1 condensate (z-score)” value was inactive: 0.0853.
In the case of `CCOC(=O)C(C)(C)Oc1ccc(Cl)cc1` [Clofibrate], the “light-induced TopBP1 condensate (z-score)” value is reported as inactive: 0.172.
In the case of `CC(C)NC[C@H](O)COc1ccc(CC(N)=O)cc1` [(S)-(-)-Atenolol], the “light-induced TopBP1 condensate (z-score)” value is reported as inactive: 0.134.
With `CN1C2=CC(=O)/C(=N\NC(N)=O)C=C2CC1S(=O)(=O)O` (centres undefined) [Carbazochrome sodium sulfonate] the “light-induced TopBP1 condensate (z-score)” value was inactive: -0.462.
In the case of `CCC(Cc1c(I)cc(I)c(N)c1I)C(=O)O` (centres undefined) [Iopanoic acid], the “light-induced TopBP1 condensate (z-score)” value is reported as inactive: 1.03.
`CCC(NC(C)C)C(O)c1ccc(O)c(O)c1` (centres undefined) [Isoetharine mesylate salt] was tested, and the “light-induced TopBP1 condensate (z-score)” value was inactive: 0.926.
`CN1CCc2cccc3c2[C@H]1Cc1ccc(O)c(O)c1-3` [R(-) Apomorphine hydrochloride hemihydrate] was tested, and the “light-induced TopBP1 condensate (z-score)” value was inactive: 0.989.
`C[C@@H]1NC(=O)NC1=O` [Methylhydantoin-5-(L)] was tested, and the “light-induced TopBP1 condensate (z-score)” value was inactive: -0.469.
`Cc1ccc(-c2ncc(Cl)cc2-c2ccc(S(C)(=O)=O)cc2)cn1` [Etoricoxib] was tested, and the “light-induced TopBP1 condensate (z-score)” value was inactive: -0.0771.
`CC1CCc2c(N3CCC(O)CC3)c(F)cc3c(=O)c(C(=O)O)cn1c23` (centres undefined) [Nadifloxacin] was tested, and the “light-induced TopBP1 condensate (z-score)” value was inactive: -0.152.
With `Cc1cc(=O)n(-c2ccccc2)n1C` [Antipyrine] the “light-induced TopBP1 condensate (z-score)” value was inactive: 0.827.
For `Clc1ccc(COC(Cn2ccnc2)c2ccc(Cl)cc2Cl)c(Cl)c1` (centres undefined) [Miconazole], the “light-induced TopBP1 condensate (z-score)” value was inactive: 0.0353.
In the case of `NC12CC3CC(CC(C3)C1)C2` [Adamantamine fumarate], the “light-induced TopBP1 condensate (z-score)” value is reported as inactive: 0.749.
With `CN(C)[C@@H]1C(O)=C(C(N)=O)C(=O)[C@@]2(O)C(O)=C3C(=O)c4c(O)ccc(Cl)c4[C@@H](O)[C@H]3C[C@@H]12` [Demeclocycline hydrochloride] the “light-induced TopBP1 condensate (z-score)” value was inactive: 0.813.
